The list shows a part of the results. These are noisy estimates, calculated here from bound and input reads.
Target: T1, Pho4 (S. cerevisiae) (UniProt P07270)
T1 sequence: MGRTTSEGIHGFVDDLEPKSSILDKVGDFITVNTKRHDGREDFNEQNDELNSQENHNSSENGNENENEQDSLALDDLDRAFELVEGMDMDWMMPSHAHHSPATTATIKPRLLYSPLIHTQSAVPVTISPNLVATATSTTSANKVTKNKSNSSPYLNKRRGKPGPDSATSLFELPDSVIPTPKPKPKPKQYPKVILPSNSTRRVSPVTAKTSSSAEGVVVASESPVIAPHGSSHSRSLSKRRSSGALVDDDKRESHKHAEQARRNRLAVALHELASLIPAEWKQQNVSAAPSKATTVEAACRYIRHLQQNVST
Assay: relative binding free energy (BET-seq); higher = weaker binding
Conditions: reference: library average

| Sequence | relative binding free energy |
| --- | --- |
| AGTTCCACGTGAATGT | 0.26 kcal/mol |
| GGTTCCACGTGGCGAT | 0.13 kcal/mol |
| TTAGGCACGTGATTCA | 0.11 kcal/mol |
| CTGGTCACGTGGTTGC | -0.05 kcal/mol |
| GTGATCACGTGTTAAT | 0.15 kcal/mol |
| GATGACACGTGGGGTA | -0.04 kcal/mol |
| TTGAGCACGTGTGATT | -0.05 kcal/mol |
| CGTTTCACGTGATTGA | 0.33 kcal/mol |
| GCCGTCACGTGTGAGG | 0.22 kcal/mol |
| GTTTTCACGTGGTCAG | 0.17 kcal/mol |
| AGAGGCACGTGAAGTT | 0.24 kcal/mol |
| TAGTGCACGTGTAGCT | -0.06 kcal/mol |
| GTGAACACGTGTAATG | 0.08 kcal/mol |
| GTTGTCACGTGGGACT | 0.07 kcal/mol |
| TTGTCCACGTGGTTTA | -0.03 kcal/mol |
| ATGGTCACGTGGTAGG | 0.11 kcal/mol |
| GTCAGCACGTGGAAGG | 0.15 kcal/mol |
| TTTTTCACGTGGTCAA | 0.18 kcal/mol |
| GACGTCACGTGGGGGG | 0.02 kcal/mol |
| TATTGCACGTGGGTAT | -0.13 kcal/mol |
| CTATTCACGTGGGTAT | 0.15 kcal/mol |
| GTCTTCACGTGTGATG | 0.39 kcal/mol |
| AGGTACACGTGTTGAA | 0.04 kcal/mol |

| Sequence | relative binding free energy |
| --- | --- |
| GTGATCACGTGTGGTG | 0.19 kcal/mol |
| GTCTACACGTGGTGAG | 0.04 kcal/mol |
| CGCTTCACGTGTTGTT | 0.26 kcal/mol |
| AATAGCACGTGATTGG | -0.01 kcal/mol |
| AATGGCACGTGCGTGG | -0.18 kcal/mol |
| AGGAGCACGTGTGTGC | -0.11 kcal/mol |
| TCAGTCACGTGTTAAT | 0.1 kcal/mol |
| GAGTGCACGTGTTTAG | 0.02 kcal/mol |
| AGTTACACGTGCATGT | 0.13 kcal/mol |
| CTTTTCACGTGGCGGG | 0.18 kcal/mol |
| GGGGTCACGTGGGCAA | 0.01 kcal/mol |
| GGAGGCACGTGCTAGG | -0.2 kcal/mol |
| ACGTACACGTGGGGCT | -0.08 kcal/mol |
| GGGACCACGTGGGAAG | 0.03 kcal/mol |
| TCCGACACGTGTGGGG | 0.02 kcal/mol |
| GTGTTCACGTGTTTCA | 0.16 kcal/mol |
| TTTAACACGTGGCTTG | -0.05 kcal/mol |
| GGGTACACGTGGGTTG | -0.06 kcal/mol |
| AATTACACGTGATGTG | 0.15 kcal/mol |
| GGTCGCACGTGCGGGA | -0.05 kcal/mol |
| TGGGTCACGTGATGGG | 0.29 kcal/mol |
| GGGTTCACGTGTTTAT | 0.38 kcal/mol |
| CGTTGCACGTGATATT | 0.13 kcal/mol |

| Sequence | relative binding free energy |
| --- | --- |
| GTATGCACGTGTTACG | 0.04 kcal/mol |
| TGGGACACGTGAATGT | 0.27 kcal/mol |
| ATAAGCACGTGCTGGT | -0.14 kcal/mol |
| GGTGGCACGTGAGATC | 0.24 kcal/mol |
| GTGCTCACGTGGGCGA | 0.18 kcal/mol |
| TCGTTCACGTGGCGTT | 0.19 kcal/mol |
| GGATACACGTGAGTTG | 0.38 kcal/mol |
| CGGTGCACGTGTTCTG | 0 kcal/mol |
| AGGCGCACGTGGGCTG | -0.21 kcal/mol |
| TTAGTCACGTGTACGA | 0.09 kcal/mol |
| ATACTCACGTGTTGTA | 0.05 kcal/mol |
| CTGGGCACGTGTTATG | -0.12 kcal/mol |
| GCGTGCACGTGTGTTC | 0 kcal/mol |
| AGGGGCACGTGCGGTT | -0.09 kcal/mol |
| GGCAGCACGTGGGAAT | -0.05 kcal/mol |
| AAGGGCACGTGTTGAT | -0.09 kcal/mol |
| AGTATCACGTGGTTCA | 0.11 kcal/mol |
| TTAATCACGTGGGTTG | 0.12 kcal/mol |
| AGGATCACGTGTCTGT | 0.14 kcal/mol |
| TTGGCCACGTGTGTTC | -0.05 kcal/mol |
| CGGGGCACGTGGCGGG | -0.21 kcal/mol |
| GATAACACGTGAGGGA | 0.36 kcal/mol |
| TGAAACACGTGATATT | 0.12 kcal/mol |

| Sequence | relative binding free energy |
| --- | --- |
| TCTCGCACGTGTTTGT | -0.07 kcal/mol |
| TGAAGCACGTGGGGAG | -0.17 kcal/mol |
| GGAGCCACGTGAGTGT | 0.12 kcal/mol |
| GTCTTCACGTGCGTGT | 0.2 kcal/mol |
| ATTGGCACGTGGGAAT | -0.05 kcal/mol |
| CGTGACACGTGGAGTG | -0.09 kcal/mol |
| AGGGTCACGTGTTAAC | 0.27 kcal/mol |
| TATAGCACGTGTATGG | -0.01 kcal/mol |
| GTATCCACGTGAAGTG | 0.43 kcal/mol |
| GTAGGCACGTGCGTAT | -0.29 kcal/mol |
| AAATACACGTGGAGGG | 0.05 kcal/mol |
| GAGTGCACGTGATGTA | 0.04 kcal/mol |
| AGGAGCACGTGATGCG | -0.02 kcal/mol |
| ATAGTCACGTGGGTGT | 0.06 kcal/mol |
| GTGGTCACGTGGGCGC | 0.05 kcal/mol |
| TATAGCACGTGGGTTA | -0.27 kcal/mol |
| TTTAGCACGTGTTGAG | -0.03 kcal/mol |
| GTTTTCACGTGAATCG | 0.4 kcal/mol |
| GCTGGCACGTGAGAGT | 0.11 kcal/mol |
| TATGACACGTGTGGCG | 0.05 kcal/mol |
| TTTGGCACGTGTAGGC | 0.03 kcal/mol |
| TCGTTCACGTGCGGGA | 0.27 kcal/mol |
| GTTCTCACGTGTGATG | 0.26 kcal/mol |

| Sequence | relative binding free energy |
| --- | --- |
| AGTGGCACGTGAAGTA | 0.06 kcal/mol |
| GGGTCCACGTGGTGCT | -0.06 kcal/mol |
| GTTTGCACGTGAGAAT | 0.32 kcal/mol |
| CGTAACACGTGTTGTT | 0.03 kcal/mol |
| GGAAGCACGTGTATGG | -0.13 kcal/mol |
| GAATACACGTGGTTAG | 0.05 kcal/mol |
| AGCATCACGTGGTATG | 0.04 kcal/mol |
| TGTCGCACGTGTATGT | -0.02 kcal/mol |
| CATTGCACGTGTATAT | 0.04 kcal/mol |
| ACGTTCACGTGGCTGT | 0.21 kcal/mol |
| TCATACACGTGGGAGG | -0.08 kcal/mol |
| CTAGTCACGTGGGTAA | 0 kcal/mol |
| TCTCGCACGTGTGGGA | 0 kcal/mol |
| TGTGGCACGTGAATGA | 0.06 kcal/mol |
| CGGGGCACGTGAGCGT | 0 kcal/mol |
| TTGTACACGTGGGGTC | -0.06 kcal/mol |
| AGGCTCACGTGTGAGT | 0.35 kcal/mol |
| TGGTTCACGTGCTAAG | 0.3 kcal/mol |
| CTTTTCACGTGTAATG | 0.26 kcal/mol |
| GGGGGCACGTGTCTGA | -0.1 kcal/mol |
| AATGTCACGTGTCAGT | 0.03 kcal/mol |
| TAGAGCACGTGTGGCA | -0.06 kcal/mol |
| TTTGCCACGTGGCAGT | -0.15 kcal/mol |
